Consider 32 sequences from article PMC12820563, “FoxP3 forms a head-to-head dimer in vivo and stabilizes its multimerization on adjacent microsatellites”.

This is one part of the list.

The assay has as its target T1, MBP-FoxP1dN (Mus musculus, UniProt P58462 326-579).
T1 sequence: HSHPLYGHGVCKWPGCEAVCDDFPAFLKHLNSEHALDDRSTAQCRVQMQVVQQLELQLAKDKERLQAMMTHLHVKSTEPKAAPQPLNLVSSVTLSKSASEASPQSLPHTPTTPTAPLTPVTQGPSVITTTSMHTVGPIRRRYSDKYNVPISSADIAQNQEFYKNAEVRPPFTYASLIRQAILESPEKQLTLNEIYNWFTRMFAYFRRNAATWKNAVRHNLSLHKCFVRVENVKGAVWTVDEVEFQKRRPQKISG
The assay is described as follows: PD-seq (MBP pull-down with sequencing); 20 mM Tris-HCl pH 7.5, 100 mM NaCl, 1.5 mM MgCl2, 0.4 uM protein, 0.1 uM dsDNA library, 30 min, room temperature, amylose pull-down; high values mean tight binding. The conditions noted are these: protein: recombinant; tags: His6-MBP; chain copies: 2; dsDNA, one strand shown. In a few lines: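 Binding is reads-per-million enrichment of pull-down over input, with replicates pooled. It comes from 30 min room-temperature incubation in Tris pH 7.5 buffer with NaCl and MgCl2 of 0.4 µM His6-MBP-tagged, N-terminally truncated mouse FoxP3 or FoxP1 fragment from E. coli with 0.1 µM Klenow-filled degenerate double-stranded DNA library, followed by amylose resin capture, three washes and Illumina sequencing of the released DNA.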
Turning to “GATGATTGTTCTCCCAGCTGATGAATTACTCTGATCGAGTAAACAAATTTTCCTAATCTTTCTGTTCAAGCGCCATCTAC”, the binding signal is 0.948 RPM ratio (pull-down/input).
To “GATGATTGTTCTCCCAGCTGATGAATTTAGTGCGTCGAGTAAACAAATTTTCCTAATCTTTCTGTTCAAGCGCCATCTAC” belongs 1.07 RPM ratio (pull-down/input); to “GATGATTGTTCTCCCAGCTGATGAATTAATTCTTTCGAGTAAACAAATTTTCCTAATCTTTCTGTTCAAGCGCCATCTAC”, 0.927 RPM ratio (pull-down/input).
To “GATGATTGTTCTCCCAGCTGATGAATTCCAGAATTCGAGTAAACAAATTTTCCTAATCTTTCTGTTCAAGCGCCATCTAC” belongs 0.825 RPM ratio (pull-down/input).
To “GATGATTGTTCTCCCAGCTGATGAATTTTCGGGTTCGAGTAAACAAATTTTCCTAATCTTTCTGTTCAAGCGCCATCTAC” belongs 0.85 RPM ratio (pull-down/input).
As for “GATGATTGTTCTCCCAGCTGATGAATTGGAGCCGTCGAGTAAACAAATTTTCCTAATCTTTCTGTTCAAGCGCCATCTAC”, the binding signal is 0.806 RPM ratio (pull-down/input).
As for “GATGATTGTTCTCCCAGCTGATGAATTGCGACTTTCGAGTAAACAAATTTTCCTAATCTTTCTGTTCAAGCGCCATCTAC”, the binding signal is 1.26 RPM ratio (pull-down/input).
To “GATGATTGTTCTCCCAGCTGATGAATTACATCCCTCGAGTAAACAAATTTTCCTAATCTTTCTGTTCAAGCGCCATCTAC” belongs 1.11 RPM ratio (pull-down/input).
To “GATGATTGTTCTCCCAGCTGATGAATTTCACCGATCGAGTAAACAAATTTTCCTAATCTTTCTGTTCAAGCGCCATCTAC” belongs 0.876 RPM ratio (pull-down/input); to “GATGATTGTTCTCCCAGCTGATGAATTTTGGCCCTCGAGTAAACAAATTTTCCTAATCTTTCTGTTCAAGCGCCATCTAC”, 0.825 RPM ratio (pull-down/input); to “GATGATTGTTCTCCCAGCTGATGAATTTCCGCAATCGAGTAAACAAATTTTCCTAATCTTTCTGTTCAAGCGCCATCTAC”, 1.12 RPM ratio (pull-down/input).
To “GATGATTGTTCTCCCAGCTGATGAATTGCGCAGGTCGAGTAAACAAATTTTCCTAATCTTTCTGTTCAAGCGCCATCTAC” belongs 0.897 RPM ratio (pull-down/input).
As to “GATGATTGTTCTCCCAGCTGATGAATTCGTCGGTTCGAGTAAACAAATTTTCCTAATCTTTCTGTTCAAGCGCCATCTAC”, the binding signal is 0.828 RPM ratio (pull-down/input).
With “GATGATTGTTCTCCCAGCTGATGAATTTGTGAGCTCGAGTAAACAAATTTTCCTAATCTTTCTGTTCAAGCGCCATCTAC”, the binding signal was 0.999 RPM ratio (pull-down/input).
To “GATGATTGTTCTCCCAGCTGATGAATTGCAGCCTTCGAGTAAACAAATTTTCCTAATCTTTCTGTTCAAGCGCCATCTAC” belongs 1.18 RPM ratio (pull-down/input); to “GATGATTGTTCTCCCAGCTGATGAATTTGCTTTCTCGAGTAAACAAATTTTCCTAATCTTTCTGTTCAAGCGCCATCTAC”, 1.22 RPM ratio (pull-down/input); to “GATGATTGTTCTCCCAGCTGATGAATTTTAATCTTCGAGTAAACAAATTTTCCTAATCTTTCTGTTCAAGCGCCATCTAC”, 0.977 RPM ratio (pull-down/input).
Take “GATGATTGTTCTCCCAGCTGATGAATTGAACATATCGAGTAAACAAATTTTCCTAATCTTTCTGTTCAAGCGCCATCTAC”: the binding signal is 0.958 RPM ratio (pull-down/input).
Regarding “GATGATTGTTCTCCCAGCTGATGAATTTGGCCCATCGAGTAAACAAATTTTCCTAATCTTTCTGTTCAAGCGCCATCTAC”, the binding signal was 0.925 RPM ratio (pull-down/input).
To “GATGATTGTTCTCCCAGCTGATGAATTGCTGCTTTCGAGTAAACAAATTTTCCTAATCTTTCTGTTCAAGCGCCATCTAC” belongs 1.39 RPM ratio (pull-down/input); to “GATGATTGTTCTCCCAGCTGATGAATTGACTGCGTCGAGTAAACAAATTTTCCTAATCTTTCTGTTCAAGCGCCATCTAC”, 1.08 RPM ratio (pull-down/input); to “GATGATTGTTCTCCCAGCTGATGAATTGGGGAAATCGAGTAAACAAATTTTCCTAATCTTTCTGTTCAAGCGCCATCTAC”, 0.984 RPM ratio (pull-down/input).
To “GATGATTGTTCTCCCAGCTGATGAATTCGCGCCTTCGAGTAAACAAATTTTCCTAATCTTTCTGTTCAAGCGCCATCTAC” belongs 0.921 RPM ratio (pull-down/input); to “GATGATTGTTCTCCCAGCTGATGAATTATAGGCTTCGAGTAAACAAATTTTCCTAATCTTTCTGTTCAAGCGCCATCTAC”, 0.959 RPM ratio (pull-down/input); to “GATGATTGTTCTCCCAGCTGATGAATTCCGTACTTCGAGTAAACAAATTTTCCTAATCTTTCTGTTCAAGCGCCATCTAC”, 0.878 RPM ratio (pull-down/input).
To “GATGATTGTTCTCCCAGCTGATGAATTGCCGTGTTCGAGTAAACAAATTTTCCTAATCTTTCTGTTCAAGCGCCATCTAC” belongs 0.927 RPM ratio (pull-down/input).
“GATGATTGTTCTCCCAGCTGATGAATTCGTTCTATCGAGTAAACAAATTTTCCTAATCTTTCTGTTCAAGCGCCATCTAC”: the binding signal was 0.93 RPM ratio (pull-down/input).
Consider “GATGATTGTTCTCCCAGCTGATGAATTGCCGCACTCGAGTAAACAAATTTTCCTAATCTTTCTGTTCAAGCGCCATCTAC”, for which the binding signal was 0.941 RPM ratio (pull-down/input).
To “GATGATTGTTCTCCCAGCTGATGAATTATACTTATCGAGTAAACAAATTTTCCTAATCTTTCTGTTCAAGCGCCATCTAC” belongs 1.1 RPM ratio (pull-down/input); to “GATGATTGTTCTCCCAGCTGATGAATTATACTAGTCGAGTAAACAAATTTTCCTAATCTTTCTGTTCAAGCGCCATCTAC”, 0.983 RPM ratio (pull-down/input).
To “GATGATTGTTCTCCCAGCTGATGAATTGTAGTGTTCGAGTAAACAAATTTTCCTAATCTTTCTGTTCAAGCGCCATCTAC” belongs 1.24 RPM ratio (pull-down/input); to “GATGATTGTTCTCCCAGCTGATGAATTGTTTAGGTCGAGTAAACAAATTTTCCTAATCTTTCTGTTCAAGCGCCATCTAC”, 1.93 RPM ratio (pull-down/input).
